Test results: paper PMC5892938
Some of the results follow. At the low end of the ranking the order means little.

Biological target: GST-SBP-SLBP (stem-loop binding protein) (UniProt Q14493)
Experiment: targeted RNA Bind-n-Seq;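 further: DESeq read counts versus GST-SBP nonspecific binding control pulldown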
Details: RBNS binding buffer: 25 mM Tris pH 7.5, 150 mM KCl, 3 mM MgCl2, 0.1% Tween, 0.5 mg/mL BSA, 1 mM DTT; 27 nM protein, 750 pM RNA pool; temperature not stated; high values mean tight binding

Row | Sequence | binding signal (log2 fold change)
1 | GGUCACGUCUCAAUCAACUCUAUUUCAGGAGUUUCCUCCUGUUAUUUCAACAGCUCGCAGUCAAG | -0.0478
2 | GGUCACGUCUCAAUCAACUCUAUCGAGGGGGGGAAAACCCCUUUGCCCUCACAAUCAACAGCUCGCAGUCAAG | -0.0772
3 | GGUCACGUCUCAAUCAACUCUCAAGAGGGGGGGAAAACCCCUUUACCCUCACAUUCAACAGCUCGCAGUCAAG | -0.0105
4 | GGUCACGUCUCAAUCAACUCAAUUCCAGGAGUUUGCUCCUGCAUUCUCAACAGCUCGCAGUCAAG | 0.0215
5 | GGUCACGUCUCAAUCAACUCCCACGAGGGGGGGAAAACCCCUUUACCCUCACUUUCAACAGCUCGCAGUCAAG | -0.0166
6 | GGUCACGUCUCAAUCAACUCUUCCUCAGGAGUUUCCUCCUGUUAUGUCAACAGCUCGCAGUCAAG | 0.0573
7 | GGUCACGUCUCAAUCAACUCUUAAGAGGGGGGGAAAACCCCUUUACCCUCAUCGUCAACAGCUCGCAGUCAAG | 0.252
8 | GGUCACGUCUCAAUCAACUCUUCUCCAGGAGUUUACUCCUGCAUACUCAACAGCUCGCAGUCAAG | 0.123
9 | GGUCACGUCUCAAUCAACUCAUCUUCCAGGGAAAGCCCUGGCUUAUUCAACAGCUCGCAGUCAAG | -0.0886
10 | GGUCACGUCUCAAUCAACUCAUCAGAGGGGGGGAAAACCCCUUUACCCUCAAUCUCAACAGCUCGCAGUCAAG | 0.0499
11 | GGUCACGUCUCAAUCAACUCUUCUUCAGGAGUUUCCUCCUGUUAUCUCAACAGCUCGCAGUCAAG | 0.106
12 | GGUCACGUCUCAAUCAACUCUUCUCCCAGGGAAAGCCCUGGUUUAUUCAACAGCUCGCAGUCAAG | 0.125
13 | GGUCACGUCUCAAUCAACUCAACUUCAGGAGUUUUCUCCUGUUAAUUCAACAGCUCGCAGUCAAG | -0.0599
14 | GGUCACGUCUCAAUCAACUCUUCUCCCAGGGAAAACCCUGGCAAUGUCAACAGCUCGCAGUCAAG | 0.228
15 | GGUCACGUCUCAAUCAACUCAUUCCCCAGGGAAACCCCUGGCUUAUUCAACAGCUCGCAGUCAAG | -0.101
16 | GGUCACGUCUCAAUCAACUCUUUCUCCAGGGAAAUCCCUGGCUUAUUCAACAGCUCGCAGUCAAG | 0.0356
17 | GGUCACGUCUCAAUCAACUCAUUAGAGGGGGGGAAAACCCCUUUACCCUCCAUAUCAACAGCUCGCAGUCAAG | -0.08
18 | GGUCACGUCUCAAUCAACUCAUCUCCAGGAGUUUACUCCUGUUUUUUCAACAGCUCGCAGUCAAG | -0.212
19 | GGUCACGUCUCAAUCAACUCAUCUUCAGGAGUUUCCUCCUGUUAUUUCAACAGCUCGCAGUCAAG | -0.00462
20 | GGUCACGUCUCAAUCAACUCUAUCUCCAGGGAAACCCCUGGUAUACUCAACAGCUCGCAGUCAAG | 0.256
21 | GGUCACGUCUCAAUCAACUCUUCCUCCAGGGAAAACCCUGGCAAAUUCAACAGCUCGCAGUCAAG | 0.0751
22 | GGUCACGUCUCAAUCAACUCAUCAGAGGGGGGGAAAACCCCUUUACCCUCCAACUCAACAGCUCGCAGUCAAG | -0.437
23 | GGUCACGUCUCAAUCAACUCAACGGCAGGAGUUUACUCCUGGAAAUUCAACAGCUCGCAGUCAAG | -0.134
24 | GGUCACGUCUCAAUCAACUCUACUCCAGGAGUUUCCUCCUGCAAAUUCAACAGCUCGCAGUCAAG | 0.0392

Row | Sequence | binding signal (log2 fold change)
25 | GGUCACGUCUCAAUCAACUCUUCCCCAGGAGUUUACUCCUGUUUUUUCAACAGCUCGCAGUCAAG | -0.00655
26 | GGUCACGUCUCAAUCAACUCUAUUCCCAGGGAAACCCCUGGCUUACUCAACAGCUCGCAGUCAAG | -0.00656
27 | GGUCACGUCUCAAUCAACUCAUUUUCAGGAGUUUGCUCCUGCUUUCUCAACAGCUCGCAGUCAAG | 0.00836
28 | GGUCACGUCUCAAUCAACUCAUCUUCCAGGGAAAGCCCUGGCAAAUUCAACAGCUCGCAGUCAAG | -0.23
29 | GGUCACGUCUCAAUCAACUCACACGAGGGGGGGAAAACCCCUUUACCCUCAACAUCAACAGCUCGCAGUCAAG | -0.196
30 | GGUCACGUCUCAAUCAACUCAAUUCCCAGGGAAACCCCUGGCAAACUCAACAGCUCGCAGUCAAG | -0.309
31 | GGUCACGUCUCAAUCAACUCAGUCCCCAGGGAAACCCCUGGUAAAUUCAACAGCUCGCAGUCAAG | -0.287
32 | GGUCACGUCUCAAUCAACUCAACAGAGGGGGGGAAAACCCCUUUACCCUCAUUAUCAACAGCUCGCAGUCAAG | 0.00639
33 | GGUCACGUCUCAAUCAACUCAACUCCCAGGGAAACCCCUGGCAUACUCAACAGCUCGCAGUCAAG | -0.147
34 | GGUCACGUCUCAAUCAACUCAAUUCCAGGAGUUUACUCCUGCAUACUCAACAGCUCGCAGUCAAG | -0.0319
35 | GGUCACGUCUCAAUCAACUCAACUCCCAGGGAAAUCCCUGGUAUUUUCAACAGCUCGCAGUCAAG | -0.00117
36 | GGUCACGUCUCAAUCAACUCAAUCUCCAGGGAAAGCCCUGGUUUUUUCAACAGCUCGCAGUCAAG | -0.235
37 | GGUCACGUCUCAAUCAACUCAUCCUCAGGAGUUUCCUCCUGUUAAUUCAACAGCUCGCAGUCAAG | 0.243
38 | GGUCACGUCUCAAUCAACUCAUCGUCAGGAGUUUUCUCCUGCAUAUUCAACAGCUCGCAGUCAAG | -0.0258
39 | GGUCACGUCUCAAUCAACUCCUAAGAGGGGGGGAAAACCCCUUUGCCCUCAUCGUCAACAGCUCGCAGUCAAG | 0.0648
40 | GGUCACGUCUCAAUCAACUCAACUUCCAGGGAAAACCCUGGUAAACUCAACAGCUCGCAGUCAAG | -0.141
41 | GGUCACGUCUCAAUCAACUCAACUUCAGGAGUUUCCUCCUGCUAAUUCAACAGCUCGCAGUCAAG | 0.0615
42 | GGUCACGUCUCAAUCAACUCAACUCCAGGAGUUUCCUCCUGUAUUCUCAACAGCUCGCAGUCAAG | -0.225
43 | GGUCACGUCUCAAUCAACUCAACUUCCAGGGAAACCCCUGGCUUACUCAACAGCUCGCAGUCAAG | 0.0953
44 | GGUCACGUCUCAAUCAACUCUUCGCCAGGAGUUUUCUCCUGCAAUUUCAACAGCUCGCAGUCAAG | -0.078
45 | GGUCACGUCUCAAUCAACUCUUCUCCCAGGGAAAGCCCUGGCAUUCUCAACAGCUCGCAGUCAAG | -0.0709
46 | GGUCACGUCUCAAUCAACUCAACUUCAGGAGUUUCCUCCUGUAUUCUCAACAGCUCGCAGUCAAG | 0.0768
47 | GGUCACGUCUCAAUCAACUCUAUUUCAGGAGUUUACUCCUGCUAUCUCAACAGCUCGCAGUCAAG | 0.084
